Measured values from PubChem BioAssay AID504339 (National Center for Advancing Translational Sciences (NCATS), 2011).
Screen size: about 390,000 compounds; about 17,000 (4.4%) were called active. The inconclusive results got no clear call from the source; some entries with a clear call stand among them for comparison. Calls come from the whole dose curve; as a rule, active = well fitted inhibition curve with a large enough effect; inconclusive = small, poorly fitted or top-dose-only effect; inactive = no such curve, though single readings can be large or run the other way. Where the call is inconclusive, the potency comes from a doubtful curve fit.

Molecular target: Lysine-specific demethylase 4A (Homo sapiens) (UniProt O75164)
Assay: qHTS Assay for Inhibitors of JMJD2A-Tudor Domain; note: nearly all actives have a fitted effect of over 50% in size
Details: AlphaScreen JMJD2A-Tudor / H3K4me3 peptide binding; series mostly up to 114 µM
Potency is the fitted concentration of half-maximal effect; tags give direction and shape of the fitted curve.

UniProt O75164, sequence (O75164 whole entry, looked up, the tested form may be a part): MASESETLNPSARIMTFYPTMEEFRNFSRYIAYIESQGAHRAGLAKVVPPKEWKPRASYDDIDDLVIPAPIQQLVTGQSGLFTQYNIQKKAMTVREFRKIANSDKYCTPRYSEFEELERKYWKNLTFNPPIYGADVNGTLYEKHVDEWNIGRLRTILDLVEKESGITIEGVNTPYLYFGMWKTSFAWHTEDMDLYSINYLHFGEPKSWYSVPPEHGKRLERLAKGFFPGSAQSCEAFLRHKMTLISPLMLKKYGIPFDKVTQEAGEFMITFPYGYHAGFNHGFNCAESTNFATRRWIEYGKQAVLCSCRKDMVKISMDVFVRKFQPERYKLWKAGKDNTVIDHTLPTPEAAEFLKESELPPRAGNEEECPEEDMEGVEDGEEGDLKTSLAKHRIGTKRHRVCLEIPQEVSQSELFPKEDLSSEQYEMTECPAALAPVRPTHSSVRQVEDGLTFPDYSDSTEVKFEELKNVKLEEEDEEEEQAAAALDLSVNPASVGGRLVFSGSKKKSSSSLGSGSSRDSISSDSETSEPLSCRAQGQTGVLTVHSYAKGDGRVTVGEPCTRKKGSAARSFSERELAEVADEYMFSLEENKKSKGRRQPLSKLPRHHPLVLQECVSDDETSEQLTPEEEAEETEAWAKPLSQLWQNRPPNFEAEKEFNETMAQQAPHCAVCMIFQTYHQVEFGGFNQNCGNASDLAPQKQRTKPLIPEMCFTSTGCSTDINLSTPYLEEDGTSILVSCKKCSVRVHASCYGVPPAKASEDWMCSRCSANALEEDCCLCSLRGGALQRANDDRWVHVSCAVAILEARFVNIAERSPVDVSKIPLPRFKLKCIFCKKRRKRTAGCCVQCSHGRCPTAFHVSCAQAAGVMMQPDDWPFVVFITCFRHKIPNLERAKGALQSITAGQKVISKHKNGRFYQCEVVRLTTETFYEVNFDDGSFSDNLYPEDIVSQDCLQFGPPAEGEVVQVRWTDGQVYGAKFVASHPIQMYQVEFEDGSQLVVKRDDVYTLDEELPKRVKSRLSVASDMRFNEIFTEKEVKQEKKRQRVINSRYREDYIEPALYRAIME

Compound	Potency
C=CCn1c(C)cc(C(=O)COC(=O)c2ccc3c(c2)NC(=O)CS3)c1C	inconclusive: 44.7 µM [inhibitor, single point]
CC[C@]12c3[nH]c4cc(-c5ccco5)ccc4c3CCN1C(=O)[C@@H](CC(=O)NCC13CC4CC(CC(C4)C1)C3)C[C@@H]2C(=O)N1CCN(C(=O)C2CC2)CC1	inactive
O=C(COC(=O)c1c2c(nc3ccccc13)/C(=C/c1cccc([N+](=O)[O-])c1)CCC2)NC1CCS(=O)(=O)C1 (stereo unspecified)	inconclusive: 22.4 µM [inhibitor, single point]
O=C(Nc1cccc(-c2nc3ncccc3o2)c1)c1sc2cc(Cl)ccc2c1Cl	inconclusive: 100 µM [inhibitor, single point]
CN(CC1CCCO1)S(=O)(=O)c1ccc(C(=O)Nc2nc(-c3ccccn3)cs2)cc1 (stereo unspecified)	active: 50.1 µM
N#C/C(=C\c1ccc(O)cc1)c1nc2ccccc2o1	inactive
CCCCCOc1ccc(C(=O)CCC(=O)NC(C)c2ccc(S(N)(=O)=O)cc2)cc1 (stereo unspecified)	inactive
CC1(C)Oc2c(ccc(O)c2CN2CCOCC2)C2=C1CCCC2	inconclusive: 50.1 µM [inhibitor, partial curve]
Cc1cccc(NC(=O)CCC(=O)N/N=C/c2ccco2)c1C	inactive
O=C(NCCCN1CCc2ccccc2C1)Nc1ccc(Br)cc1	inconclusive: 39.8 µM [inhibitor, single point]
CCC(=O)N1CCc2cc(Br)cc(S(=O)(=O)N3CCCC(C(=O)Nc4cc(C)ccc4OC)C3)c21 (stereo unspecified)	inactive
COc1ccc(-c2nc(C)c(C(C)=O)n2O)cc1	inconclusive: 100 µM [inhibitor, single point]
Cc1ccccc1NC(=O)c1cc([N+](=O)[O-])ccc1NCCN1C(=O)CCC1=O	inconclusive: 100 µM [inhibitor, partial curve, poor fit]
O=C(CNC(=O)c1ccccc1Br)N/N=C/c1cc(Br)ccc1O	inactive
CCCC(C)c1nnc(NC(=O)C2CC(=O)N(CCc3ccc(F)cc3)C2)s1 (stereo unspecified)	inconclusive: 89.1 µM [inhibitor, single point]
CN(CC(=O)Nc1cccc(S(=O)(=O)NC2=NCCCCC2)c1)Cc1ccc(C(C)(C)C)cc1	inconclusive: 63.1 µM [inhibitor, partial curve, poor fit]
N=c1n(-c2ccccc2)c(O)cc(=O)n1-c1ccccc1	inactive
Cc1ccn(CCC(=O)NC2CCCc3c2cnn3-c2cccc(C)c2C)n1 (stereo unspecified)	inconclusive: 20 µM [inhibitor, full curve, poor fit]
NC(=S)Cc1nc(-c2ccc(Cl)cc2)cs1	inconclusive: 56.2 µM [inhibitor, partial curve]
O=C(O)c1ccc(NN=Cc2cc(=O)[nH]c(=O)[nH]2)cc1	inconclusive: 89.1 µM [inhibitor, partial curve]
O=[N+]([O-])c1ccccc1S(=O)(=O)Oc1ccc(C(=S)N2CCOCC2)cc1	inconclusive: 35.5 µM [inhibitor, single point]

Compound	Potency
COc1ccc(OC)c(C2Nc3c(C)cc(C)cc3-c3cc(C)nn32)c1 (stereo unspecified)	inconclusive: 39.8 µM [inhibitor, partial curve]
COc1ccc(N2C(=O)CC(NNc3ncc(Cl)cc3Cl)C2=O)cc1 (stereo unspecified)	inconclusive: 100 µM [inhibitor, partial curve]
O=c1c2cc(Cl)ccc2nc(-c2ccccc2)n1O	inconclusive: 14.1 µM [inhibitor, single point]
COc1ccc(OC)c(NC(=O)Cn2ccn(-c3ccc(OC)c(OC)c3)c(=O)c2=O)c1	inconclusive: 50.1 µM [inhibitor, partial curve]
Cc1ccc(C(=O)NCCN2C3=NC[C@@H](Cc4ccccc4)N3C[C@H]2Cc2ccc(O)cc2)cc1Br	inconclusive: 79.4 µM [inhibitor, partial curve]
O=[N+]([O-])c1ccccc1/C=C/C=N/N1CCCCC1	active: 17.8 µM
Cc1ccc(NC(=O)c2ccc(NCCCN3CCC(C)CC3)c([N+](=O)[O-])c2)cc1F	active: 79.4 µM
COc1ccc2c(CC(=O)NCc3ccc4c(c3)OCO4)coc2c1	active: 39.8 µM
CCOC(=O)c1ccccc1NC(=O)CSc1nnc(Cc2cccn2C)n1-c1ccc(F)cc1	inconclusive: 56.2 µM [inhibitor, partial curve]
COC(=O)[C@@]12CCCN1[C@H](c1ccc(-c3ccc(Cl)c(Cl)c3)cc1)[C@H]1C(=O)N(C)C(=O)[C@H]12	inconclusive: 50.1 µM [inhibitor, partial curve, poor fit]
Cc1ccc(S(=O)(=O)Nc2ccc(O)c3ccccc23)c(C)c1	active: 44.7 µM
CCCCOc1ccc(/C(O)=C2/C(=O)C(=O)N(CCN(C)C)C2c2ccc(O)c(OC)c2)cc1 (stereo unspecified)	inactive
CN1C(=O)C2(Oc3ccccc3C3CC(c4ccccc4)=NN32)c2ccccc21 (stereo unspecified)	inconclusive: 56.2 µM [inhibitor, partial curve]
CCc1oc(C(=O)O)cc1CN(CC)CC	active: 31.6 µM
O=C(CCC1CCCC1)N1CCN(C2CCCC2)CC1	inconclusive: 0.708 µM [inhibitor, full curve, poor fit]
Cc1cccc(NC(=O)CSc2nnc(CSc3nc(C)cc(C)n3)n2Cc2ccco2)c1	inconclusive: 6.31 µM [inhibitor, full curve, poor fit]
COc1ccc(C(CNCC(O)COc2c(C)ccc(C)c2C)N(C)C)cc1 (stereo unspecified)	active: 22.4 µM
COc1ccc(NC(=O)[C@H](Cc2c[nH]c3ccccc23)NC(=O)[C@@H]2Cc3ccccc3CN2)cc1	inconclusive: 31.6 µM [inhibitor, partial curve]
Cc1cc(=O)oc2cc(OCC(=O)N3CCN(c4ccc(F)cc4)CC3)ccc12	inconclusive: 56.2 µM [inhibitor, partial curve]
O=C(O/N=C\c1ccc(N2CCCCC2)c([N+](=O)[O-])c1)c1cccc(Cl)c1	inconclusive: 14.1 µM [inhibitor, partial curve]
